Measured values: PubChem BioAssay AID720542 (National Center for Advancing Translational Sciences (NCATS), 2013)
Among all 360,000 compounds or so, about 740 (0.21%) were called active. The shares of active, inactive and inconclusive entries below differ from those in the screen. Calls come from the whole dose curve; as a rule, active = well fitted inhibition curve with a large enough effect; inconclusive = small, poorly fitted or top-dose-only effect; inactive = no such curve, though single readings can be large or run the other way. No potency is given beside an inconclusive call; the fits are too rough.

tested on: Plasmodium falciparum AMA1 (3D7) - RON2 peptide interaction; assay: qHTS for Inhibitors of AMA1-RON; Towards Development of Antimalarial Drug Lead: Primary Screen; settings: AlphaScreen AMA1-biotinylated RON2 peptide binding; activity change, negative = inhibition: at 58.2 µM (top of the series) unless noted; note: nearly all actives have a fitted effect of over 45% in size;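 for activity change, negative = inhibition: 0% = vehicle wells and -100% = peptide control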
Procedure, shortened: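 AMA1 (3D7) with his tag at 25 nM final met compounds first, then biotinylated RON2 peptide at 25 nM; detection used donor plus acceptor beads, 10 µg/mL apiece, read by AlphaScreen after 30 min at room temperature.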
Potency is the fitted concentration of half-maximal effect; tags give direction and shape of the fitted curve.

Question: `Fc1cccc(Cn2cc(C(=S)N3CCCCC3)c3ccccc32)c1` was tested. Which Potency did it give?
Answer: inconclusive [inhibitor, single point]

Question: How did the Potency turn out when `c1ccc2c(-c3ccc(OCCN4CCCCC4)cc3)c(-c3ccsc3)sc2c1` was run?
Answer: inconclusive [inhibitor, partial curve]

Question: `COc1ccc(N2CCN(C(=O)c3ccc(COc4ccc([N+](=O)[O-])cc4)o3)CC2)cc1` was tested. Which Potency did it give?
Answer: inconclusive [inhibitor, single point]

Question: With `CCn1c(O)c(N=NC(=O)CNc2cccc(C)c2)c2ccccc21` as the compound, how does the Potency read?
Answer: inconclusive [inhibitor, partial curve]

Question: For `COc1cc(Cl)ccc1OCc1cc(C(=O)N(C)CC2CCCCO2)no1` (stereo unspecified), which “activity change, negative = inhibition” value is on record?
Answer: inactive: -10.7%

Question: `CCOC(=O)c1c(-c2ccc(C)cc2)csc1NC(=O)CCN1CC(C)OC(C)C1` (stereo unspecified) was tested. Which Potency did it give?
Answer: inconclusive [inhibitor, partial curve]

Question: For `C/C(=N\Nc1ncc(Cl)cc1Cl)c1ccc(C#N)cc1`, which Potency is on record?
Answer: inconclusive [inhibitor, partial curve]

Question: How did the Potency turn out when `O=[N+]([O-])c1ccc(N=Nc2c(Cl)cc(O)cc2Cl)cc1` was run?
Answer: inconclusive [inhibitor, partial curve]

Question: `COC(=O)CSc1ncnc2c(C)csc12` was tested. Which Potency did it give?
Answer: inconclusive [inhibitor, single point]

Question: `CCCOc1ccc(C(=O)OCCN2CCCCC2)c(O)c1` was tested. Which Potency did it give?
Answer: inconclusive [inhibitor, partial curve]

Question: Which “activity change, negative = inhibition” value does the source give for `CCn1c(SCC(=O)Nc2cc(C(C)(C)C)nn2-c2ccccc2)nnc1-c1cccs1` here?
Answer: inactive: 30.2%

Question: With `Cc1cc(C)cc(N=c2c([N+](=O)[O-])nn(-c3cccc(Cl)c3)n2O)c1` as the compound, how does the “activity change, negative = inhibition” value read?
Answer: inactive: -29.4%

Question: How did the Potency turn out when `CCCN1CCc2cc(O)cc3c2[C@H]1Cc1ccc(O)c(O)c1-3` was run?
Answer: inconclusive [inhibitor, partial curve]

Question: For `C/C(=N\NC(=O)CSc1ncccn1)c1ccc2c(c1)OCCO2`, which “activity change, negative = inhibition” value is on record?
Answer: inactive: 16.5%

Question: How did the “activity change, negative = inhibition” value turn out when `CCOc1ccccc1CNC(=O)CCCC(=O)n1nc(C)c2ccccc21` was run?
Answer: inactive: 0%

Question: `CC(=O)c1ccc(N2CCC(c3cc(-c4ccc(Cl)cc4Cl)n[nH]3)CC2)c([N+](=O)[O-])c1` was tested. Which Potency did it give?
Answer: inconclusive [inhibitor, partial curve]

Question: `CCCCCCNc1c([N+](=O)[O-])cc(C)cc1[N+](=O)[O-]` was tested. Which Potency did it give?
Answer: inconclusive [inhibitor, partial curve]

Question: How did the Potency turn out when `O=c1cc(CSc2nnnn2-c2ccccc2)nc(Nc2ccc(F)cc2)[nH]1` was run?
Answer: inconclusive [inhibitor, single point]

Question: Which “activity change, negative = inhibition” value does the source give for `Cc1c(-c2ccccc2)[n+](=O)c(-c2ccco2)c(C)n1[O-]` here?
Answer: inactive: 45.1%

Question: With `COCCn1nnnc1CN1CCC(Cc2ccccc2)CC1` as the compound, how does the Potency read?
Answer: inconclusive [inhibitor, single point]

Question: Which Potency does the source give for `COc1ccc(N2CCN(C(=O)c3cccc(Br)c3)CC2)c([N+](=O)[O-])c1` here?
Answer: inconclusive [inhibitor, single point]

Question: For `O=[N+]([O-])c1cc(/C=N/Nc2nc3ccccc3[nH]2)c(O)cc1O`, which Potency is on record?
Answer: inconclusive [inhibitor, single point]

Question: `Cc1ccccc1CN1C(=O)c2ccccc2S(=O)c2ccc(C(=O)NCCCN3CCOCC3)cc21` (stereo unspecified) was tested. Which “activity change, negative = inhibition” value did it give?
Answer: inactive: -8.45%

Question: `COc1ccc2cc(-c3ccccc3)c(=O)oc2c1` was tested. Which “activity change, negative = inhibition” value did it give?
Answer: inactive: 83.2%

Question: How did the “activity change, negative = inhibition” value turn out when `CCCNC(=O)Cn1c2ccccc2c2nc(=O)cc(C)n21` was run?
Answer: inactive: -2%

Question: Which Potency does the source give for `COC(=O)c1cc2c(-c3ccccc3)c(C)c3ccccn3c-2c1C(=O)OC` here?
Answer: inconclusive [inhibitor, single point]

Question: For `Cc1cc(C)c2cc(C#N)c(N3CCCN(C(=S)NCCCN(C)C)CC3)nc2c1`, which “activity change, negative = inhibition” value is on record?
Answer: inactive: -2.84%

Question: How did the Potency turn out when `COc1ccc(Cc2nc(-c3ccc(-n4cccc4)cc3)no2)cc1OC` was run?
Answer: inconclusive [inhibitor, single point]

Question: How did the “activity change, negative = inhibition” value turn out when `COc1ccc(Nc2ncnc3sccc23)cc1OC` was run?
Answer: inactive: 5.84%

Question: How did the “activity change, negative = inhibition” value turn out when `Cc1c(/C=N/Nc2nc3ccccc3[nH]2)c2ccccc2n1C` was run?
Answer: inactive: -32%

Question: With `FC(F)(F)c1cccc(N2CCC(N=CN3CCCCCC3)=N2)c1` as the compound, how does the Potency read?
Answer: inconclusive [inhibitor, partial curve]

Question: `Nc1sc(-c2ccccc2)cc1C(=O)N1CCN(c2ccccc2)CC1` was tested. Which Potency did it give?
Answer: inconclusive [inhibitor, single point]

Question: For `Cc1ccc(OCCC(=O)Nc2ccc(S(=O)(=O)Nc3nccs3)cc2)cc1`, which activity change, negative = inhibition is on record?
Answer: inconclusive: -11.6% [inhibitor]

Question: Which “activity change, negative = inhibition” value does the source give for `COc1ccc(CCN(C)C(=O)c2cc(S(=O)(=O)N3CCCCCC3)ccc2OC)cc1OC` here?
Answer: inactive: 71.6%

Question: Which “activity change, negative = inhibition” value does the source give for `CCOC(=O)C1=c2/c(=C/c3ccncc3)c(N)c(C(=O)OC)n2C(=O)C(c2ccncc2)S1` (stereo unspecified) here?
Answer: inactive: 1.74%

Question: `O=C(C(O)c1ccccc1)N1N=C(c2ccccc2)CC1(O)C(F)(F)F` (stereo unspecified) was tested. Which Potency did it give?
Answer: inconclusive [inhibitor, single point]

Question: For `COc1cccc(CNCc2ccc(OC)c3ccccc23)c1OC`, which Potency is on record?
Answer: inconclusive [inhibitor, single point]

Question: With `COc1ccc(/C=N/N(CCC(=O)NC(C)(C)C)C2=NS(=O)(=O)c3ccccc32)cc1` as the compound, how does the “activity change, negative = inhibition” value read?
Answer: inactive: -2.43%

Question: `CCOc1cccc(NC(=O)C2CCCN(S(=O)(=O)c3ccc(-n4cnnn4)cc3)C2)c1` (stereo unspecified) was tested. Which “activity change, negative = inhibition” value did it give?
Answer: inactive: -4.49%

Question: Which Potency does the source give for `Cc1ccc(S(=O)(=O)N/N=C/c2ccc(C#N)cc2)cc1` here?
Answer: inconclusive [inhibitor, partial curve]

Question: With `O=C(CSc1nc2ccc(Cl)cc2[nH]1)NCCc1ccccc1` as the compound, how does the Potency read?
Answer: inconclusive [inhibitor, single point]

Question: For `CSc1ccc(CN2CCC2(C)C(=O)Nc2cccc(NS(C)(=O)=O)c2)cc1` (stereo unspecified), which “activity change, negative = inhibition” value is on record?
Answer: inactive: -12.5%

Question: For `CNc1ccc(/C=C/C(=O)c2cccc3ccccc23)cc1[N+](=O)[O-]`, which Potency is on record?
Answer: inconclusive [inhibitor, full curve]

Question: How did the Potency turn out when `CC[n+]1c(/C=C2\C=C(C)CC(C)C2)sc2ccccc21` (stereo unspecified) was run?
Answer: inconclusive [inhibitor, single point]

Question: Which “activity change, negative = inhibition” value does the source give for `Cn1cc(CC(=O)NCc2ccc(F)cc2)c2ccccc21` here?
Answer: inactive: -7.32%

Question: `N#Cc1c(N2CCN(c3ccc([N+](=O)[O-])cc3)CC2)[n+](=O)c2ccc(Cl)cc2n1[O-]` was tested. Which “activity change, negative = inhibition” value did it give?
Answer: inactive: -21.7%

Question: With `CCOc1ccc(-n2c(C)cc(C(=O)NS(=O)(=O)c3ccc(C)cc3)c2C)cc1` as the compound, how does the Potency read?
Answer: inconclusive [inhibitor, partial curve]

Question: For `CCCCC(=O)Nc1ccc(N2CCN(c3ccc(F)cc3)CC2)cc1`, which “activity change, negative = inhibition” value is on record?
Answer: inactive: -6.28%

Question: `Cc1ccc(NC(=O)CNCc2ccccc2Cl)cc1S(=O)(=O)N(C)C` was tested. Which Potency did it give?
Answer: inconclusive [inhibitor, partial curve]

Question: `CC(C)(C)OC(=O)N1CCC(c2cc(=O)n3[nH]cc(C(=O)NC4CCCC4)c3n2)CC1` was tested. Which Potency did it give?
Answer: inconclusive [inhibitor, single point]

Question: With `Cc1cc(C)n2nc(C(=O)N3CCCC(Nc4ccc(F)c(F)c4)C3)cc2n1` (stereo unspecified) as the compound, how does the “activity change, negative = inhibition” value read?
Answer: inactive: 9.42%

Question: For `Nc1nc(NCCCN2CCOCC2)nc(Nc2ccc(F)cc2)c1[N+](=O)[O-]`, which “activity change, negative = inhibition” value is on record?
Answer: inactive: 14.7%

Question: For `COc1ccc(OCC(O)CN(CCO)CC(O)Cn2ccc3ccccc32)cc1` (stereo unspecified), which “activity change, negative = inhibition” value is on record?
Answer: inactive: -8.91%

Question: For `COc1ccc(NC(=O)CN(C)CC(=O)N(C)C2(C#N)CCC(C)CC2)cc1` (stereo unspecified), which “activity change, negative = inhibition” value is on record?
Answer: inactive: 16.3%

Question: For `Cc1ccc(CN2CCN(Cc3cn[nH]c3-c3ccccc3)CC2CCO)o1` (stereo unspecified), which Potency is on record?
Answer: inconclusive [inhibitor, full curve]

Question: How did the Potency turn out when `Cn1c(C(=O)Nc2ccc3c(c2)OCO3)cc2sccc21` was run?
Answer: inconclusive [inhibitor, partial curve]

Question: For `COC(=O)c1cc2c(ccn2-c2ccc(F)cc2)n1C(C)C`, which Potency is on record?
Answer: inconclusive [inhibitor, partial curve]

Question: Which Potency does the source give for `O=C(c1ccccc1F)N1CCN(Cc2cccc(Cl)c2)CC1` here?
Answer: inconclusive [inhibitor, partial curve]

Question: With `CCN(Cc1ccccc1)c1cc2c(c3c1ccn3C)C1CCC2C1` (stereo unspecified) as the compound, how does the Potency read?
Answer: active: 20 µM

Question: How did the Potency turn out when `C#CCOCCOCCOCCNc1nc(N2CCN(C(=O)CCCCCCCCCCNC(=O)[C@H]([C@@H](C)CC)n3cc(CCCCN=C(N)N)nn3)CC2)nc(N2CCN(C(=O)CCCCCCCCCCNC(=O)[C@H](CO)n3cc(CCCCCN)nn3)CC2)n1` was run?
Answer: inconclusive [inhibitor, single point]

Question: `COc1ccc2[nH]c(C)c(CCNCc3cn(C)c4ccccc34)c2c1` was tested. Which Potency did it give?
Answer: inconclusive [inhibitor, partial curve]

Question: Which Potency does the source give for `Cn1cc(C(c2ccccn2)c2cn(C)c3ccccc23)c2ccccc21` here?
Answer: inconclusive [inhibitor, partial curve]

Question: Which Potency does the source give for `Nc1cc(-c2ccc(OC(F)(F)F)cc2)nn1-c1ccc(Cl)c(Cl)c1` here?
Answer: inconclusive [inhibitor, single point]

Question: For `O=C(c1cccc(S(=O)(=O)NCc2ccccc2)c1)N1CCN(Cc2ccccc2)CC1`, which “activity change, negative = inhibition” value is on record?
Answer: inactive: 2.53%

Question: How did the Potency turn out when `Nc1ccccc1Sc1ccc(C(F)(F)F)cc1[N+](=O)[O-]` was run?
Answer: inconclusive [inhibitor, partial curve]

Question: Which “activity change, negative = inhibition” value does the source give for `COc1cccc(COC(=O)C2CC(=O)N(Cc3ccc(C)cc3)C2)c1OC` (stereo unspecified) here?
Answer: inactive: 8.95%

Question: With `N#Cc1nc(COc2ccc(Cl)cc2)oc1N1CCN(Cc2ccccc2)CC1` as the compound, how does the Potency read?
Answer: inconclusive [inhibitor, single point]

Question: How did the Potency turn out when `CCN(CC)C(=O)C1CCN(Cc2ccc(Br)cc2)CC1` was run?
Answer: inconclusive [inhibitor, partial curve]

Question: For `Cc1ccc(S(=O)(=O)N(CC(=O)NCc2ccco2)C2CCCCC2)cc1`, which Potency is on record?
Answer: inconclusive [inhibitor, partial curve]

Question: How did the “activity change, negative = inhibition” value turn out when `Nc1nc(Cl)cc(NCCc2ccc(O)cc2)n1` was run?
Answer: inactive: -3.25%

Question: How did the Potency turn out when `Cc1ccc(C)c(N2C(=N)S/C(=C\c3ccc(-c4ccccc4C(=O)O)o3)C2=O)c1` was run?
Answer: inconclusive [inhibitor, partial curve]
